Data from the RNAGym collection of RNA variant scans (doi:10.1073/pnas.2313332121).
Variants at the floor of the assay are shown more often than the library holds them.

B1: TPR 5TU (parent)
chain: GGAUCUUCUCGAUCUAACAAAAAAGACAAAUCUGCCACAAAGCUUGAGAGCAUCUUCGGAUGCAGAGGCGGCAGCCUUCGGUGGCGCGAUAGCGCCAACGUUCUCAACUAUGACACGCAAAACGCGUGCUCCGUUGAAUGGAGUUUAUCAUG

Variants of: B1
Test: polymerase ribozyme fitness, log enrichment relative to wild type (log ratio); higher = more active; in vitro selection for triplet polymerase activity
How it was run: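 Each subunit of a heterodimeric triplet polymerase ribozyme was mutagenized into a library by PCR, transcribed, and subjected to one round of in vitro selection, run in triplicate. Libraries were annealed with a biotinylated primer, the partner subunit and triplets, incubated frozen at −7 °C, and extended constructs were gel-excised, captured on streptavidin beads and recovered by RT-PCR. Input and output libraries were sequenced on Illumina, keeping genotypes with ≥10 input reads and ≥1 read per output. Fitness is log base 2 of genotype enrichment divided by wild-type enrichment, from inverse-variance-weighted replicate averages.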

Variant	polymerase ribozyme fitness (log ratio)
GGAUCUUCUCGAUCUCACAAAAAAGACAAAUCUGCCACAAAGCUUGAGAGCAUUUUCGGAUGCAGAGGCGGCAGCCUUCGGUGGCGCGAUAACGCCAACGUUCUCGACUAUGACAGGCAAAACGCGUGCUCCGUUGAAAGGAGUUUAUCAUG [A16C C54U G92A A106G C116G U139A]	≤ -4.2
GGAUCUUCUCGAUCUCACAAAAAAGACAAAUCUGCCACAAAGCUUGAGAGCAUCUUUGGCUGCAGAGGCGGCAGCCUUCGGUGGCGCGAUAGUGCCAACGUUCUCAACUAUGACACGUAAAACGCGUGCUCCGUUGAAUUGACUUUAUCAUG [A16C C57U A60C C93U C118U G140U G143C]	≤ -4.2
GGAUCUUCUCGAUCUCACAAAAAAGACAAAUCUGCCACAAAGCUUGAGAGCAUCUUCGGAUGGAGAGGCAGCAGCCUUCGGUGGAGCGAUAGCGCCAACGUUCUCAACUAUGACACGCAAAACGCGUGCUCCGUUGAAUGGAGUUUAUCAUG [A16C C63G G70A C85A]	≤ -4.2
GGAUCUUCUCGAUCUCACAAAAAAGACAAAUCUGCCACAAAGCUUGAGAGCAUCUUCGGAUGCAGAGGUGGCAGCCUUCGAUGGCGCGAUAGAGCCAACGUUCUCAACUAUGACACGCAAAACGCGUGCUCCGUUGAAUGGAGUUUAUCAUG [A16C C69U G81A C93A]	≤ -4.2
GGAUCUUCUCGAUCUCACAAAAAAGACAAAUCUGCCACAAAGCUUGAGAGCAUCUUCGGAUGCAGAGGCGGUAGCCUUCGGAGGUGCGAUUGCGCCAACGUUCUCAACUAUGACACGCAAAACGCGUGCUCCGUUGAAUGGAGUUUAUCAUG [A16C C72U U82A C85U A91U]	≤ -4.2
GGAUCUUCUCGAUCUCACAAAAAAGACAAAUCUGCCACAAAGCUUGAGAGCAUCUUCGGAUGCAGAGGCGGCAGCCUUCGGUGGGGCGAUAGCGCCAACGUUCUCAACUAUGACACGCAAAACGCGUGCUCCGUUGAAUGGAGUUUAUCAUG [A16C C85G]	-4.13
GGAUCUUCUCGAUCUCACAAAAAAGACAAAUCUGCCACAAAGCUUGAGAGCAUCUUCGGAUGCAGAGGCGGCAGCCUUCGGUGGGGCCAUAGCGCCAACGUUCUCAACUAUGACACGCAAAACGCGUGCUCCGUUCAAUGGAGUUUAUCAUG [A16C C85G G88C G136C]	≤ -4.2
GGAUCUUCUCGAUCUCACAAAAAAGACAAAUCUGCCACAAAGCUUGAGAGCAUCUUCGGAUGCAGAGGCGGCAGCCUUCGGUGGUGCGAUAGCGCCAACGUUCUCAACUAUGACACGCAAAACGCGUGCUCCGUUGAAUGGAGUUUAUCAUG [A16C C85U]	-1.75
GGAUCUUCUCGAUCUCACAAAAAAGACAAAUCUGCCACAAAGCUUGAGAGCAUCUUCGGAUGCAGAGGCGGCAGCCUUCGGUGGCGUGAUCGCGCCAACGUUCUCAACUAUGACACGCAAAACGCGUGCUCCGUUGAAUGGAGUUUAUCAUG [A16C C87U A91C]	≤ -4.2
GGAUCUUCUCGAUCUCACAAAAAAGACAAAUCUGCCACAAAGCUUGAGAGCAUCUUCGGAUGCAGAGGCGGCAGCCUUCGGUGGCGCGAUAGCGUCAACGUUCUCAACUAUGACACGCAAAACGCGUGCUCCGUUGAAUGGAGUUUAUCAUG [A16C C95U]	-0.661
GGAUCUUCUCGAUCUCACAAAAAAGACAAAUCUGCCACAAAGCUUGAGAGCAUCUUCGGAUGCAGAGGCGGCAGCCUUCGGUGGCGCGAUAGCGCCAAGGUUCUCAACUAUGACACGCAAAACGAGUGCUCCGUUGAAUGGAGUUUAUCAUG [A16C C99G C125A]	-2.16
GGAUCUUCUCGAUCUCACAAAAAACACAAAUCUGCCACAAAGCUUGAGAGCAUCUUCGGAUGCAGAGGCGGCAGCCUUCGGUGGCGCGAUAGCGCCAACGUUCUCAACUAUGACACGCAAAACGCGUGCUCCGUUGAAUGGAGUUUAUCAUG [A16C G25C]	-2.46
GGAUCUUCUCGAUCUCACAAAAAAGACAAAUCUUCCACAAAGCUUGAGAGCAUCAUCGGAUGCAGAGGCGGCAGCCGUCGGUGGCGCGAUAGUGCCAUCGUUCUCAACUAUGACACGCAAAACCCGUGCUCCGUUGAAUGGAGUUUAUCAUG [A16C G34U U55A U77G C93U A98U G124C]	≤ -4.2
GGAUCUUCUCGAUCUCACAAAAAAGACAAAUCUGCCACAAAUCUUGAGAGCAUCUUCCGAUGCAGAGGCGGCAGCCUUCGGUGUCGCGAUAGCGCCAACAUGCUCAACUAUGACACGCAAAACGCGUGCUCCGUUGUAUGGAGCUUAUCAUG [A16C G42U G58C G84U G100A U102G A137U U144C]	≤ -4.2
GGAUCUUCUCGAUCUCACAAAAAAGACAAAUCUGCCACAAAGCUUGAGAACAUCUUCGGAUGCAGAGGCGGCAGCCUUCGGUGGUGCGAUAGCGCCAACGUUCUCAACUAUGACACGCAAAACGCGUGCUCCGUUGAAUGGAGUUUAUCAUG [A16C G50A C85U]	-3.26
GGAUCUUCUCGAUCUCACAAAAAAGACAAAUCUGCCACAAAGCUUGAGACCAUCUUCAGAUGCAGAGGCGGCAGCCUUCGGUGGCGCCAUAGCGCCAACGUUCUCAACUAUGACACGCAAAACGCGUGCUCCGUUGUAUGGAGUUUAUCAUG [A16C G50C G58A G88C A137U]	≤ -4.2
GGAUCUUCUCGAUCUCACAAAAAAGACAAAUCUGCCACAAAGCUUGAGAGCAUCUUCCGAUGCAGAGGCGACAGCCUUCGGUGGCGCGAUAGCGCCAACGUUCUCAACUAUGACACGCAAAACGCGUGCUCCGUUAAAUGGAGUUUAUCAUG [A16C G58C G71A G136A]	≤ -4.2
GGAUCUUCUCGAUCUCACAAAAAAGACAAAUCUGCCACAAAGCUUGAGAGCAUCUUCGGAUGCAGAGGCGACAGCCUUCGGUGACGCGAUAGCGCCAACGUUCUCAACCAUGACACGCAAAACGCGUGCUCCGUUGAAUGAAGUUUAUCAUG [A16C G71A G84A U109C G141A]	≤ -4.2
GGAUCUUCUCGAUCUCACAAAAAAGACAAAUCUGCCACAAAGCUUGAGAGCAUCUUCGGAUGCAGAGGCGGCAGCCUUCGGUUGCGCGAUAGCGCCAACGUUCUCAACUAUGACACGCAAAACGCGUGCUCCGUUGAAUGGAGUUUAUCAUG [A16C G83U]	-1.56
